PubChem BioAssay AID1508642 (National Center for Advancing Translational Sciences (NCATS), 2021)
Hit rate of the full screen: of about 43,000 compounds, about 200 (0.47%) were called active. Not shown: some 12% with an inconclusive outcome. Calls come from the whole dose curve; as a rule, active = well fitted cell-killing curve with a large enough effect; inconclusive = small, poorly fitted or top-dose-only effect, or effect the other way; inactive = flat fitted curve, though single readings scatter. The list shows a part of the results.

experiment: Cell viability qHTS assay in S16 Pmp22-F2sN cells; settings: S16 Pmp22-F2sN Schwann cells (luciferase reporters placed in the Pmp22 gene) viability, CellTiter-Glo, 24 h; series mostly up to 57.5 µM; activity change, negative = cytotoxicity: at the top concentration; note: nearly all actives have a fitted effect of over 65% in size
Outline: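 Rat S16 Schwann reporter line, 24 h treatment with library compounds delivered at 23 nL per well. Cell viability by CellTiter-Glo luminescence.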
% is set by controls: 0 for no effect and ±100 for the full control effect.

Structure (SMILES) | activity change, negative = cytotoxicity
CCOc1ccc(-c2cc(CCCC(=O)NCCc3ccc(OC)c(OC)c3)no2)cc1 | inactive: 1.32%
Oc1cccc(Nc2cc(-c3ccccc3)ncn2)c1 | inactive: 5.53%
CC(C)(C)C(=O)Nc1ccc2nc(SCCOc3ccccc3Cl)sc2c1 | inactive: -0.143%
N#Cc1ccc(NC(=O)c2ccc3c(c2)nnn3C2CCCC2)cc1 | inactive: 29.8%
CCCS(=O)(=O)N1CC(=O)N(c2cc(C)cc(C)c2)C(C)(C(=O)NC2CCCCCC2)C1 (stereo unspecified) | inactive: 12.1%
CCOc1ccccc1C(=O)Nc1cc(-c2nc3cccnc3s2)ccc1C | inactive: -1.04%
CCC(Sc1ncnc2sc3c(c12)CCCC3)C(=O)OCC(C)C (stereo unspecified) | inactive: 6.43%
COc1ccc(Nc2oc(-c3ccc(COc4ccccc4)o3)nc2C#N)cc1 | inactive: 5.68%
CCCCN(Cc1ccco1)C(=O)c1cc2c(s1)-c1c(C)cccc1OC2 | inactive: -29%
CCOC(=O)c1ccccc1NC(=O)c1nn(-c2ccc(C)cc2)c(=O)n(C)c1=O | inactive: 4.82%
CCc1ccccc1NC(=O)Cn1nnc(C(=O)Nc2ccc(OC)c(OC)c2)c1N | inactive: 0.381%
Cc1cc(C)c(S(=O)(=O)N2CCC(N3CCN(Cc4ccc(F)cc4)C(=O)C3=O)CC2)c(C)c1 | inactive: -9.31%
COC(=O)Cn1ccc2cc(S(=O)(=O)N3CCCCC3)ccc21 | inactive: 0.423%
Cc1ccccc1NC(=O)c1ccc(F)c(S(=O)(=O)N2CCc3ccccc3C2)c1 | inactive: 7.54%
Cc1ccc(C(C)C)c(OCCCn2c(=O)oc3ccc(C)cc32)c1 | inactive: 3.2%
Cc1c(NC(=O)C(F)(F)F)ccc2nc3c(=O)n(C)c(=O)n(C)c3nc12 | inactive: 29.6%
CCc1ccccc1NC(=O)c1cnn(-c2ccc(F)cc2)c1C1CCNCC1 | inactive: 0.68%
COc1ccc(-n2ncc(C(=O)NCCCN3CCCCC3)c2C2CCN(C(=O)OC(C)(C)C)CC2)cc1 | inactive: -13.1%
COc1ccc(-c2cc(-c3ccc4c(c3)NC(=O)CO4)nc3c2COc2ccc(C)cc2-3)cc1 | inactive: 17.6%
COc1c(Cl)cc(Cl)cc1/C=C(\C#N)c1nc(-c2ccc(Cl)cc2)cs1 | inactive: 1.34%
CCOCCCNC(=O)Cn1cc2c(n1)-c1c(oc(C(=O)N3CCCC3)c1C)CC2 | inactive: 3.4%
COc1ccc(-c2ccc(-c3noc(-c4cc(OC)cc(OC)c4)n3)c(OC)n2)cc1 | inactive: -3.71%
CCOc1ccc2c(c1)c(=O)c(C(=O)c1ccc3c(c1)OCO3)cn2Cc1cccc(F)c1 | inactive: -15%
CCOc1ccc(-n2c(C)nc3cc(C(=O)NCc4ccc(C)cc4)ccc32)cc1 | inactive: 0.579%

Structure (SMILES) | activity change, negative = cytotoxicity
CC1CCCN(c2nc(-c3ccccc3O)nc3ccccc23)C1 (stereo unspecified) | inactive: 18.6%
O=c1c2c3c(sc2nnn1Cc1ccc(F)cc1)CCCC3 | inactive: -0.561%
Cc1ccc(C(=O)Nc2nnc(S(=O)(=O)N(C)Cc3ccc(F)cc3)s2)cc1 | inactive: -17.7%
Cc1nnc(N2CCN(c3cccc(Cl)c3)CC2)c2c1nnn2Cc1ccc(F)cc1 | inactive: 1.75%
CCc1cccc(NC(=O)CSc2n[nH]c(-c3ccccc3Cl)n2)c1 | inactive: 6.03%
O=C(Nc1ccc2nc(SCCOc3ccccc3Cl)sc2c1)c1ccco1 | inactive: 22.1%
CCOC(=O)C1CCCN(C(=O)Cn2ncc3c(C)n(Cc4ccc(F)cc4)c(C)c3c2=O)C1 (stereo unspecified) | inactive: -13.9%
CCCNC(=O)Cn1ncc2c3ccccc3n(CCC)c2c1=O | inactive: 5.54%
COc1ccc2sc(N(Cc3cccnc3)C(=O)C3COc4ccccc4O3)nc2c1 (stereo unspecified) | inactive: 1.52%
O=S(=O)(c1ccccc1)c1nnn2c1nc(N1CCN(c3ccccc3)CC1)c1cc(Cl)ccc12 | inactive: 5.47%
CCOC(=O)/C(C#N)=C/c1ccc(-c2ccccc2)o1 | inactive: 14.3%
Cn1c(=O)c2nc3ccc(NC(=O)C(F)(F)F)cc3nc2n(C)c1=O | inactive: 13.4%
Cc1ccc2c(c1)C(c1ccccc1)N(C(=O)c1ccc(S(=O)(=O)N3CCCC3)cc1)CC(=O)N2 (stereo unspecified) | inactive: -23.7%
COc1ccc2sc(N(Cc3cccnc3)C(=O)c3cccs3)nc2c1 | inactive: -29.4%
Cc1nc(SCc2ccccc2Cl)c(C#N)c(C)c1C | inactive: -12%
Cc1cc(C)cc(NC(=O)c2sc3nc4n(c(=O)c3c2C)N=C(c2ccc(F)cc2)CS4)c1 | inactive: 0.977%
CCCn1cc(S(=O)(=O)c2ccccc2)c(=O)c2cc(F)c(N3CCCCCC3)cc21 | inactive: -23.3%
O=C(Cn1cc2c(n1)CCCC2)Nc1cc(C(F)(F)F)ccc1Cl | inactive: -4.3%
COC(=O)c1ccccc1NC(=O)CCC(=O)N1CC(C)Sc2ccccc21 (stereo unspecified) | inactive: -3.31%
COC(=O)C(NC(=O)CCc1c(C)nc2cc(-c3cccc(F)c3)nn2c1C)C(C)C (stereo unspecified) | inactive: 13.6%
Cc1ccc2c(=O)cc(C(=O)Nc3ccc(S(=O)(=O)N4CCCCC4)cc3)oc2c1 | inactive: -1.19%
COc1ccc(NC(=O)Cn2c(SCc3ccc(F)cc3)nc3cccnc32)c(OC)c1 | inactive: -24.1%
COc1cccc(N2CCN(C(=O)c3cc4c(=O)n(Cc5cccnc5)ccc4nc3C)CC2)c1 | inactive: 4.5%
CCOc1ccc(C(=O)Nc2nc(-c3ccc(Br)cc3)ns2)cc1 | inactive: 1.06%

Structure (SMILES) | activity change, negative = cytotoxicity
Cc1ccc(NC(=O)CSc2cn(CC(=O)N3CCOCC3)c3ccccc23)cc1Cl | inactive: -22.5%
CCC(Cc1ccccc1)NC(=O)CCS(=O)(=O)c1cc2c(cc1Cl)NC(=O)CO2 (stereo unspecified) | inactive: 0.786%
COc1ccc(NC(=O)C2CCCN(c3cnccn3)C2)c(OC)c1 (stereo unspecified) | inactive: 15.4%
COc1ccccc1N1CCN(C(c2ccc(Cl)cc2)c2nnc(-c3cccc(F)c3)o2)CC1 (stereo unspecified) | inactive: -16.3%
O=C(Nc1ccc(Cl)c(-c2nc3ccccc3o2)c1)c1ccc(-c2cccc([N+](=O)[O-])c2)o1 | inactive: 27.3%
CCOc1ccc(NC(=O)Cn2cc(C(=O)c3ccc(OC)cc3)c(=O)c3cc4c(cc32)OCO4)cc1 | inactive: 25.7%
COc1ccccc1CNC(=O)c1cnc(N(C)C)nc1 | inactive: -0.429%
CCCSc1oc(-c2ccco2)nc1S(=O)(=O)c1ccc(Cl)cc1 | inactive: -1.05%
CCCCOC(=O)c1ccc(OC(=O)c2sc3ncn(Cc4ccccc4Cl)c(=O)c3c2C)cc1 | inactive: -6.04%
COc1ccccc1OCc1nnc(-c2ccccc2)o1 | inactive: 7.38%
O=C(CSc1nc(=O)n(Cc2ccco2)c2c1CCC2)Nc1cccc(F)c1 | inactive: 4.48%
CCOc1ccc(CNCCCSc2nnnn2C)cc1OC | inactive: -2.01%
COc1cccc(CNC(=O)Cc2csc3nc(-c4ccccc4)cn23)c1 | inactive: -3.68%
Cc1ccc(Cl)cc1Nc1sc(C(=O)c2ccc(F)cc2)c(N)c1S(C)(=O)=O | inactive: -8.66%
COc1cc(N2C(=O)CSC23C(=O)N(Cc2cccc(F)c2)c2ccccc23)cc(OC)c1OC (stereo unspecified) | inactive: -2.66%
CCN(CC)CCNC(=O)CN1C(=O)COc2ccc(S(=O)(=O)N3CCOCC3)cc21 | inactive: -2.58%
CCOC(=O)Cn1c(=O)n(CC2CCCO2)c2nc(-c3ccc(OCC)cc3)nc(C(N)=O)c21 (stereo unspecified) | inactive: 13.1%
Cc1cc(Nc2cccc(Cl)c2)nc2ccc(NC(=O)Cc3ccc(Cl)cc3)cc12 | inactive: 9.23%
Cc1ccc(-n2ncc(C(=O)NCc3ccccc3)c2C2CCN(C(=O)OC(C)(C)C)CC2)cc1 | inactive: -16.2%
CCOc1ccccc1NC(=O)Cn1c(=O)n(Cc2ccccc2)c(=O)c2c1c1cc(C)ccc1n2C | inactive: 2.42%
COc1ccc(CCNC(=O)CN2C(=O)COc3ccc(C)cc32)cc1OC | inactive: -4.71%
CCN(C(=O)Cn1nc(Cc2ccncc2)c2ccccc2c1=O)c1cccc(Cl)c1 | inactive: 17.3%
COc1ccccc1N(CC(=O)N1CCC(C)CC1)S(=O)(=O)c1ccc(C)cc1 | inactive: 8.34%
CCCCN(CC)CCCNC(=O)CN1C(=O)CSc2ccc(S(=O)(=O)N3CCOCC3)cc21 | inactive: 16.3%

Structure (SMILES) | activity change, negative = cytotoxicity
Cc1ccc(C(=O)NCc2ccc3c(c2)CCN3C(=O)c2ccc(C)cc2)cc1 | inactive: 9.53%
CCn1nc(C)c(CCN(C)C(=O)Nc2ccc(C)c(Cl)c2)c1C | inactive: 5.86%
COCCCNC(=O)c1c(-c2ccccc2)c(-c2ccccc2)nn(C)c1=O | inactive: 2.08%
COc1cc(NC(=O)c2nn(C)c3c2CS(=O)(=O)c2ccccc2-3)cc(OC)c1 | inactive: -5.41%
O=C(Nc1ccc2nc3n(c(=O)c2c1)CCCCC3)C(=O)Nc1ccccc1F | inactive: 20.1%
CCc1ccc(Cn2c(CNS(=O)(=O)c3ccc([N+](=O)[O-])cc3)nc3cccnc32)cc1 | inactive: -19.2%
Cc1cccc(Nc2nn3c(=O)c4cc5c(cc4nc3s2)OCO5)c1 | inactive: 11.2%
O=C(Nc1ccc(F)cc1F)c1cccc2c1C(=O)N(C1CCCCC1)C2 | inactive: 9.84%
Cc1cccc(CSc2nc3c(c(=O)[nH]2)CCC3)c1 | inactive: 1.52%
COCCNc1ccc(-c2nc(-c3ccncc3)no2)cc1[N+](=O)[O-] | inactive: -2.78%
COc1cc(NC(=O)CSc2nc(-c3cccs3)cc(C(F)(F)F)n2)cc(OC)c1OC | inactive: 1.49%
COc1cccc(-n2c(SCC(=O)N3CCc4ccccc43)nc3c([nH]c4ccccc43)c2=O)c1 | inactive: 17.7%
CCS(=O)(=O)N1CCc2cc(C(=O)N3CCN(c4ccc(OC)cc4)CC3)ccc21 | inactive: 0.243%
COc1ccc(OC)c(S(=O)(=O)N2Cc3ccccc3CC2C(=O)Nc2ccc(C)cc2C)c1 (stereo unspecified) | inactive: 2.34%
COc1ccc(-c2nc(SCC(=O)Nc3ccccc3)c(-c3ccc(F)cc3)[nH]2)cc1OC | inactive: -22.1%
CCc1ccc(C2CC(=O)c3c([nH]c(C(=O)OC4CCC(C)CC4)c3C)C2)cc1 (stereo unspecified) | inactive: 16.1%
CNC(=O)c1ccc2nc(CCc3ccccc3)oc2c1 | inactive: 0.292%
COc1ccc(S(=O)(=O)NCc2cccn2Cc2cccc(C)c2)cc1Cl | inactive: -24.6%
O=C(Cn1c(=O)n(-c2ccccc2)c(=O)c2ccc(C(=O)NCc3ccc4c(c3)OCO4)cc21)Nc1ccc(F)cc1 | inactive: 4.77%
COC(=O)c1ccc(CSc2nc3c([nH]c4ccccc43)c(=O)n2-c2ccc(F)cc2)o1 | inactive: 10.3%
CCc1cccc(NC(=O)Cn2c(=O)n(-c3ccccc3C)c(=O)c3c2c2cc(C)ccc2n3C)c1 | inactive: 20.6%
COc1cc(OC)c(NC(=O)Cn2c(=O)c(C(F)(F)F)nc3ccccc32)cc1Cl | inactive: 2.86%
COc1ccc(NCc2cc3cc4c(cc3n(CC(=O)Nc3cccc(F)c3)c2=O)OCO4)cc1 | inactive: 5.49%
Cc1cccc(N2CCN(S(=O)(=O)c3cn(C)c(C)n3)CC2)c1C | inactive: 1.25%
